Test results reported in the supplement of paper PMC12217912.
Some of the results follow. Sequences were assembled here from the parent chain. Values near 0.05 are background.

B1: TEV protease; numbered along this chain (parent)
chain: MGESLFKGPRDYNPISSSICHLTNESDGHTTSLYGIGFGPFIITNKHLFRRNNGTLVVQSLHGVFKVKDTTTLQQHLVDGRDMIIIRMPKDFPPFPQKLKFREPQREERICLVTTNFQTKSMSSMVSDTSCTFPSGDGIFWKHWIQTKDGQCGSPLVSTRDGFIVGIHSASNFTNTNNYFTSVPKNFMELLTNQEAQQWVSGWRLNADSVLWGGHKVFMVKPEEPFQPVKEATQL

Variants of: B1
Assay: raw area under fraction-flipped curve 0-4 h after induction (AUC4h, not background-subtracted), DNA-recorder readout of cleavage of the substrate (dimensionless); higher = more cleavage of the substrate by the protease variant
Conditions: temperature: 34 °C; time window: 0-4 h after rhamnose induction
Protocol: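 In vivo DNA recorder in E. coli TOP10(DE3) ΔrhaA at 34 °C. Each TEVp single-site mutant (parent TEVp 0) is paired with a single-site variant of the 7-mer TEVs (canonical ENLYFQ|S). The substrate sits between flexible linkers in a Bxb1-sfGFP-TEVs-SsrA fusion, so cleavage stabilises Bxb1 and speeds flipping of a recombination array, read by NGS. The value is the raw area under the fraction-flipped curve over 0-4 h after rhamnose induction (AUC4h), with ≥20 reads per time point. It is not background-subtracted; inactive controls average about 0.047.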
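Also: Bxb1 expression induced with 0.2% (w/v) L-rhamnose at OD600 near 0.5, cultures sampled hourly, flipped fraction per protease–substrate barcode pair counted by paired-end Illumina sequencing.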

Variant | area with substrate EALYFQS | area with substrate EFLYFQS | area with substrate EILYFQS | area with substrate EKLYFQS | area with substrate EVLYFQS | area with substrate EHLYFQS | area with substrate ERLYFQS | area with substrate ESLYFQS | area with substrate ETLYFQS | area with substrate EWLYFQS
MGESLFKGPRDYNPISSSICHLTNESDGHTTSLYGIGFGPFIITNKHLFRRNNGTLVVQSLHGVFKVKDTTTLQQHLVDGRDMIIIRMPKDFPPFPQKLKFREPQREERICLVTTNFQTKSMSSMVSDTSCTFPSGDGIFWKHWIQTKDGQCGSPLVSTRDGFIVGIHSASNFTNTNNYFTSVPKNFMELLTNQEAQQWVSGWRLNADNVLWGGHKVFMVKPEEPFQPVKEATQL [S209N] | 0.125 | 0.0522 | 0.0855 | 0.0881 | 0.065 | – | – | – | – | –
MGESLFKGPRDYNPISSSICHLTNESDGHTTSLYGIGFGPFIITNKHLFRRNNGTLVVQSLHGVFKVKDTTTLQQHLVDGRDMIIIRMPKDFPPFPQKLKFREPQREERICLVTTNFQTKSMSSMVSDTSCTFPSGDGIFWKHWIQTKDGQCGSPLVSTRDGFIVGIHSASNFTNTNNYFTSVPKNFMELLTNQEAQQWVSGWRLNADSVLWGEHKVFMVKPEEPFQPVKEATQL [G214E] | 0.117 | – | 0.0738 | 0.0831 | 0.0553 | 0.086 | 0.0613 | 0.0815 | 0.116 | –
MGESLFKGPRDYNPISSSICHLTNESDGHTTSLYGIGFGPFIITNKHLFRRNNGTLVVQSLHGVFKVKDTTTLQQHLVDGRDMIIIRMPKDFPPFPQKLKFREPQREERICLVTTNFQTKSMSSMVSDTSCTFPSGDGIFWKHWIQTKDGQCGSPLVSTRDGFIVGIHSASNFTNTNNYFTSVPKNFMELLTNQEAQQWVSGWRLNADSVLWGGHKEFMVKPEEPFQPVKEATQL [V217E] | 0.0553 | – | – | 0.0649 | – | – | 0.0631 | 0.0656 | 0.0638 | 0.0768
MGESLFKGPRDYNPISSSICHLTNESDGHTTSLYGIGFGPFIITNKHLFRRNNGTLVVQSLHGVFKVKDTTTLQQHLVDGRDMIIIRMPKDFPPFPQKLKFREPQREERICLVTTNFQTKSMSSMVSDTSCTFPSGDGIFWKHWIQTKDGQCGSPLVSTRDGFIVGIHSASNFTNTNNYFTSVPKNFMELLTNQEAQQWVSGWRLNADSVLWGGHKVIMVKPEEPFQPVKEATQL [F218I] | 0.106 | – | 0.0807 | 0.0858 | – | 0.0789 | 0.0879 | 0.0908 | – | –
MGESLFKGPRDYNPISSSICHLTNESDGHTTSLYGIGFGPFIITNKHLFRRNNGTLVVQSLHGVFKVKDTTTLQQHLVDGRDMIIIRMPKDFPPFPQKLKFREPQREERICLVTTNFQTKSMSSMVSDTSCTFPSGDGIFWKHWIQTKDGQCGSPLVSTRDGFIVGIHSASNFTNTNNYFTSVPKNFMELLTNQEAQQWVSGWRLNADSVLWGGHKVFMVKPAEPFQPVKEATQL [E223A] | 0.115 | – | – | 0.0897 | – | – | – | – | – | –
MGESLFKGPRDYNPISSSICHLTNESDGHTTSLYGIGFGPFIITNKHLFRRNNGTLVVQSLHGVFKVKDTTTLQQHLVDGRDMIIIRMPKDFPPFPQKLKFREPQREERICLVTTNFQTKSMSSMVSDTSCTFPSGDGIFWKHWIQTKDGQCGSPLVSTRDGFIVGIHSASNFTNTNNYFTSVPKNFMELLTNQEAQQWVSGWRLNADSVLWGGHKVFMVKPEEPFAPVKEATQL [Q227A] | 0.122 | – | – | – | – | – | – | – | – | –
MGESLFKGPRDYNPISSSICHLTNESDGHTTSLYGIGFGPFIITNKHLFRRNNGTLVVQSLHGVFKVKDTTTLQQHLVDGRDMIIIRMPKDFPPFPQKLKFREPQREERICLVTTNFQTKSMSSMVSDTSCTFPSGDGIFWKHWIQTKDGQCGSPLVSTRDGFIVGIHSASNFTNTNNYFTSVPKNFMELLTNQEAQQWVSGWRLNADSVLWGGHKVFMVKPEEPFQPVKIATQL [E231I] | 0.103 | 0.158 | 0.0936 | 0.136 | 0.102 | 0.162 | – | 0.0814 | 0.15 | 0.111
MGESLFKGPRDYNPISSSICHLTNESDGHTTSLYGIGFGPFIITNKHLFRRNNGTLVVQSLHGVFKVKDTTTLQQHLVDGRDMIIIRMPKDFPPFPQKLKFREPQREERICLVTTNFQTKSMSSMVSDTSCTFPSGDGIFWKHWIQTKDGQCGSPLVSTRDGFIVGIHSASNFTNTNNYFTSVPKNFMELLTNQEAQQWVSGWRLNADSVLWGGHKVFMVKPEEPFQPVKEAPQL [T233P] | 0.113 | – | – | 0.126 | 0.105 | – | 0.118 | – | – | –
MGESLFKGPRDYNPISSSICHLTNESDGHTTSLYGIGFGPFIITNKHLFRRNNGTLVVQSLHGVFKVKDTTTLQQHLVDGRDMIIIRMPKDFPPFPQKLKFREPQREERICLVTTNFQTKSMSSMVSDTSCTFPSGDGIFWKHWIQTKDGQCGSPLVSTRDGFIVGIHSASNFTNTNNYFTSVPKNFMELLTNQEAQQWVSGWRLNADSVLWGGHKVFMVKPEEPFQPVKEATQC [L235C] | 0.0897 | 0.0918 | 0.0683 | – | 0.0866 | – | – | – | 0.119 | –
MGESLFKGPRDYNPISSSICHLTNESDGHTTSLYGIGFGPFIITNKHLFRRNNGTLVVQSLHGVFKVKDTTTLQQHLVDGRDMIIIRMPKDFPPFPQKLKFREPQREERICLVTTNFQTKSMSSMVSDTSCTFPSGDGIFWKHWIQTKDGQCGSPLVSTRDGFIVGIHSASNFTNTNNYFTSVPKNFMELLTNQEAQQWVSGWRLNADSVLWGGHKVFMVKPEEPFQPVKEATQP [L235P] | 0.0564 | – | 0.0929 | 0.145 | 0.0988 | – | 0.105 | 0.112 | – | –
MGESLFKGPRDYNPISSSICHLTNESDGHTTSLYGIGFGPFIITNKHLFRRNNGTLVVQSLHGVFKVKDTTTLQQHLVDGRDMIIIRMPKDFPPFPQKLKFREPQREERICLVTTNFQTKSMSSMVSDTSCTFPSGDGIFWKHWIQTKDGQCGSPLVSTRDGFIVGIHSASNFTNTNNYFTSVPKNFMELLTNQEAQQWVSGWRLNADSVLWGGHKVFMVKPEEPFQPVKEATQT [L235T] | 0.132 | – | – | 0.124 | 0.104 | – | 0.101 | 0.12 | – | –
MHESLFKGPRDYNPISSSICHLTNESDGHTTSLYGIGFGPFIITNKHLFRRNNGTLVVQSLHGVFKVKDTTTLQQHLVDGRDMIIIRMPKDFPPFPQKLKFREPQREERICLVTTNFQTKSMSSMVSDTSCTFPSGDGIFWKHWIQTKDGQCGSPLVSTRDGFIVGIHSASNFTNTNNYFTSVPKNFMELLTNQEAQQWVSGWRLNADSVLWGGHKVFMVKPEEPFQPVKEATQL [G2H] | – | 0.162 | – | – | 0.125 | 0.13 | 0.13 | 0.141 | – | –

Same assay, conditions: temperature: 34 °C; time window: 0-4 h after rhamnose induction

Variant | area with substrate EDLYFQS | area with substrate EELYFQS | area with substrate ELLYFQS | area with substrate EPLYFQS | area with substrate EQLYFQS | area with substrate EYLYFQS | area with substrate EMLYFQS | area with substrate EGLYFQS | area with substrate ECLYFQS
MGESLFKGPRDYNPISSSICHLTNESDGHTTSLYGIGFGPFIITNKHLFRRNNGTLVVQSLHGVFKVKDTTTLQQHLVDGRDMIIIRMPKDFPPFPQKLKFREPQREERICLVTTNFQTKSMSSMVSDTSCTFPSGDGIFWKHWIQTKDGQCGSPLVSTRDGFIVGIHSASNFTNTNNYFTSVPKNFMELLTNQEAQQWVSGWRLNADSVLWGGHKVIMVKPEEPFQPVKEATQL [F218I] | 0.112 | 0.112 | 0.0742 | 0.103 | 0.0942 | 0.0786 | – | – | –
MGESLFKGPRDYNPISSSICHLTNESDGHTTSLYGIGFGPFIITNKHLFRRNNGTLVVQSLHGVFKVKDTTTLQQHLVDGRDMIIIRMPKDFPPFPQKLKFREPQREERICLVTTNFQTKSMSSMVSDTSCTFPSGDGIFWKHWIQTKDGQCGSPLVSTRDGFIVGIHSASNFTNTNNYFTSVPKNFMELLTNQEAQQWVSGWRLNADSVLWGGHKVFMVKPEEPFAPVKEATQL [Q227A] | 0.114 | – | – | – | – | – | – | – | –
MGESLFKGPRDYNPISSSICHLTNESDGHTTSLYGIGFGPFIITNKHLFRRNNGTLVVQSLHGVFKVKDTTTLQQHLVDGRDMIIIRMPKDFPPFPQKLKFREPQREERICLVTTNFQTKSMSSMVSDTSCTFPSGDGIFWKHWIQTKDGQCGSPLVSTRDGFIVGIHSASNFTNTNNYFTSVPKNFMELLTNQEAQQWVSGWRLNADSVLWGGHKVFMVKPEEPFQPVKIATQL [E231I] | – | – | – | 0.101 | 0.102 | – | 0.109 | – | –
MGESLFKGPRDYNPISSSICHLTNESDGHTTSLYGIGFGPFIITNKHLFRRNNGTLVVQSLHGVFKVKDTTTLQQHLVDGRDMIIIRMPKDFPPFPQKLKFREPQREERICLVTTNFQTKSMSSMVSDTSCTFPSGDGIFWKHWIQTKDGQCGSPLVSTRDGFIVGIHSASNFTNTNNYFTSVPKNFMELLTNQEAQQWVSGWRLNADSVLWGGHKVFMVKPEEPFQPVKEAPQL [T233P] | – | 0.112 | – | – | – | – | – | – | –
MGESLFKGPRDYNPISSSICHLTNESDGHTTSLYGIGFGPFIITNKHLFRRNNGTLVVQSLHGVFKVKDTTTLQQHLVDGRDMIIIRMPKDFPPFPQKLKFREPQREERICLVTTNFQTKSMSSMVSDTSCTFPSGDGIFWKHWIQTKDGQCGSPLVSTRDGFIVGIHSASNFTNTNNYFTSVPKNFMELLTNQEAQQWVSGWRLNADSVLWGGHKVFMVKPEEPFQPVKEATQC [L235C] | – | – | – | – | – | 0.0833 | 0.106 | 0.0826 | –
MGESLFKGPRDYNPISSSICHLTNESDGHTTSLYGIGFGPFIITNKHLFRRNNGTLVVQSLHGVFKVKDTTTLQQHLVDGRDMIIIRMPKDFPPFPQKLKFREPQREERICLVTTNFQTKSMSSMVSDTSCTFPSGDGIFWKHWIQTKDGQCGSPLVSTRDGFIVGIHSASNFTNTNNYFTSVPKNFMELLTNQEAQQWVSGWRLNADSVLWGGHKVFMVKPEEPFQPVKEATQP [L235P] | – | – | – | 0.104 | 0.132 | – | – | 0.109 | –
MGESLFKGPRDYNPISSSICHLTNESDGHTTSLYGIGFGPFIITNKHLFRRNNGTLVVQSLHGVFKVKDTTTLQQHLVDGRDMIIIRMPKDFPPFPQKLKFREPQREERICLVTTNFQTKSMSSMVSDTSCTFPSGDGIFWKHWIQTKDGQCGSPLVSTRDGFIVGIHSASNFTNTNNYFTSVPKNFMELLTNQEAQQWVSGWRLNADSVLWGGHKVFMVKPEEPFQPVKEATQT [L235T] | – | – | – | – | 0.0899 | 0.0641 | – | 0.122 | –
MHESLFKGPRDYNPISSSICHLTNESDGHTTSLYGIGFGPFIITNKHLFRRNNGTLVVQSLHGVFKVKDTTTLQQHLVDGRDMIIIRMPKDFPPFPQKLKFREPQREERICLVTTNFQTKSMSSMVSDTSCTFPSGDGIFWKHWIQTKDGQCGSPLVSTRDGFIVGIHSASNFTNTNNYFTSVPKNFMELLTNQEAQQWVSGWRLNADSVLWGGHKVFMVKPEEPFQPVKEATQL [G2H] | – | – | – | – | – | – | – | 0.105 | 0.11
